Results: the supplement of paper PMC4967469

Assays:
Test in all cases: Viability of human cancer cell lines after 72 h of drug (GDSC screen)
[1] = compound: Oc1ccc2ccccc2c1SSc1c(O)ccc2ccccc12 [IPA-3]; details: top dose 32 µM; top dose inferred
Experimental: (§1)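 Human cancer cell lines in 384-well plates, medium with 10% serum, drug for 72 h over a 256-fold dose range (nine 2-fold or five 4-fold steps up to the top dose). Adherent lines were fixed and stained with the nucleic acid dye Syto60, suspension lines read with resazurin; signal relative to control wells, capped at 0 and 100%. One two-parameter sigmoid per drug and line, fitted in a mixed model over all curves with the slope shared within a line.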

[2] = compound: O=C(NOCC1CC1)c1ccc(F)c(F)c1Nc1ccc(I)cc1Cl [CI-1040]; details: top dose 10 µM; top dose inferred
Experimental: as §1

[3] = compound: CN(C)C/C=C/C(=O)Nc1ccc(C(=O)Nc2cccc(Nc3nccc(-c4cccnc4)n3)c2)cc1 [ZG-10]; details: top dose 10 µM; top dose inferred
Experimental: as §1

[4] = compound: Cn1nnc2c(C(N)=O)ncn2c1=O [Temozolomide]; details: top dose 30 µM
Experimental: as §1

[5] = compound: COc1cc2c(Oc3ccc(NC(=O)C4(C(=O)Nc5ccc(F)cc5)CC4)cc3F)ccnc2cc1OCCCN1CCOCC1 [XL-880]; details: top dose 5.12 µM; top dose inferred
Experimental: as §1

[6] = compound: CN1CCc2c(c3ccccc3n2Cc2ccc(C(=O)NO)cc2)C1 [Tubastatin A]; details: top dose 20 µM
Experimental: as §1

JHH-1 (liver, adherent) gave an AUC [1] of 0.851, an IC50 [1] of 28 µM and an AUC [2] of 0.407. It also gave an IC50 [2] of 0.339 µM, an AUC [3] of 0.77 and an IC50 [3] of 4.12 µM. The AUC [4] was 0.983, the IC50 [4] was > 30 µM and the AUC [5] was 0.814. It also gave an IC50 [5] of 3.08 µM, an AUC [6] of 0.841 and an IC50 [6] of 15.7 µM.
In the case of H2731 (mesothelioma, adherent), the AUC [1] is reported as 0.896, the IC50 [1] is reported as > 32 µM and the AUC [2] is reported as 0.899. The IC50 [2] was > 10 µM, the AUC [3] was 0.745 and the IC50 [3] was 3.55 µM. The AUC [4] was 0.982, the IC50 [4] was > 30 µM and the AUC [5] was 0.585. For the same cell line, the IC50 [5] was 0.568 µM, the AUC [6] was 0.732 and the IC50 [6] was 6.39 µM.
Work on ESS-1 (endometrium, adherent) yielded an AUC [1] of 0.781, an IC50 [1] of 11.8 µM and an AUC [2] of 0.912. The IC50 [2] was > 10 µM, the AUC [3] was 0.675 and the IC50 [3] was 1.81 µM. For the same cell line, the AUC [4] was 0.989, the IC50 [4] was > 30 µM and the AUC [5] was 0.988. The IC50 [5] was > 5.12 µM, the AUC [6] was 0.876 and the IC50 [6] was 16.3 µM.
451Lu (melanoma, adherent) showed an AUC [1] of 0.882, an IC50 [1] of 31.4 µM and an AUC [2] of 0.32. The IC50 [2] was 0.202 µM, the AUC [3] was 0.819 and the IC50 [3] was 5.37 µM. The AUC [4] was 0.988, the IC50 [4] was > 30 µM and the AUC [5] was 0.781. For the same cell line, the IC50 [5] was 2.04 µM, the AUC [6] was 0.98 and the IC50 [6] was > 20 µM.
HSC-2 (head and neck, adherent) showed an AUC [1] of 0.764, an IC50 [1] of 10.7 µM and an AUC [2] of 0.866. It also gave an IC50 [2] of 7.79 µM, an AUC [3] of 0.795 and an IC50 [3] of 4.24 µM. For the same cell line, the AUC [4] was 0.979, the IC50 [4] was > 30 µM and the AUC [5] was 0.767. The IC50 [5] was 1.76 µM, the AUC [6] was 0.989 and the IC50 [6] was > 20 µM.
With “NCI-H2087 (lung adenocarcinoma, semi-adherent)” the AUC [1] was 0.916, the IC50 [1] was > 32 µM and the AUC [2] was 0.762. For the same cell line, the AUC [3] was 0.889, the IC50 [3] was > 10 µM and the AUC [4] was 0.975. For the same cell line, the IC50 [4] was > 30 µM, the AUC [5] was 0.772 and the IC50 [5] was 2.12 µM. The AUC [6] was 0.922 and the IC50 [6] was > 20 µM.
With PCI-6A (head and neck, adherent) the AUC [1] was 0.988, the IC50 [1] was > 32 µM and the AUC [2] was 0.776. It also gave an IC50 [2] of 3.91 µM, an AUC [3] of 0.836 and an IC50 [3] of 6.47 µM. The AUC [4] was 0.964, the IC50 [4] was > 30 µM and the AUC [5] was 0.493. The IC50 [5] was 0.307 µM, the AUC [6] was 0.912 and the IC50 [6] was > 20 µM.
In the case of MHH-ES-1 (Ewing sarcoma, adherent), the AUC [1] is reported as 0.981, the IC50 [1] is reported as > 32 µM and the AUC [2] is reported as 0.915. The IC50 [2] was > 10 µM, the AUC [3] was 0.5 and the IC50 [3] was 0.627 µM. For the same cell line, the AUC [4] was 0.966, the IC50 [4] was > 30 µM and the AUC [5] was 0.56. For the same cell line, the IC50 [5] was 0.466 µM, the AUC [6] was 0.86 and the IC50 [6] was 16.4 µM.
Work on LoVo (large intestine, adherent) yielded an AUC [1] of 0.795, an IC50 [1] of 15.1 µM and an AUC [2] of 0.638. The IC50 [2] was 1.52 µM, the AUC [3] was 0.871 and the IC50 [3] was 9.62 µM. The AUC [4] was 0.986, the IC50 [4] was > 30 µM and the AUC [5] was 0.954. For the same cell line, the IC50 [5] was > 5.12 µM, the AUC [6] was 0.986 and the IC50 [6] was > 20 µM.
With 8505C (thyroid, adherent) the AUC [1] was 0.739, the IC50 [1] was 10.1 µM and the AUC [2] was 0.693. The IC50 [2] was 2.25 µM, the AUC [3] was 0.748 and the IC50 [3] was 3.39 µM. For the same cell line, the AUC [4] was 0.982, the IC50 [4] was > 30 µM and the AUC [5] was 0.671. For the same cell line, the IC50 [5] was 0.987 µM, the AUC [6] was 0.954 and the IC50 [6] was > 20 µM.
“NCI-H1781 (lung adenocarcinoma, adherent)” was tested, and the AUC [1] was 0.966, the IC50 [1] was > 32 µM and the AUC [2] was 0.956. For the same cell line, the IC50 [2] was > 10 µM, the AUC [3] was 0.738 and the IC50 [3] was 2.98 µM. The AUC [4] was 0.986, the IC50 [4] was > 30 µM and the AUC [5] was 0.866. For the same cell line, the IC50 [5] was 4.59 µM, the AUC [6] was 0.986 and the IC50 [6] was > 20 µM.
“A427 (non-small cell lung carcinoma, adherent)” was tested, and the AUC [1] was 0.92, the IC50 [1] was > 32 µM and the AUC [2] was 0.756. The IC50 [2] was 3.46 µM, the AUC [3] was 0.704 and the IC50 [3] was 2.37 µM. The AUC [4] was 0.974, the IC50 [4] was > 30 µM and the AUC [5] was 0.712. The IC50 [5] was 1.28 µM, the AUC [6] was 0.966 and the IC50 [6] was > 20 µM.
For WM35 (melanoma, adherent), the AUC [1] was 0.943, the IC50 [1] was > 32 µM and the AUC [2] was 0.625. It also gave an IC50 [2] of 1.38 µM, an AUC [3] of 0.718 and an IC50 [3] of 2.61 µM. For the same cell line, the AUC [4] was 0.985, the IC50 [4] was > 30 µM and the AUC [5] was 0.522. It also gave an IC50 [5] of 0.367 µM, an AUC [6] of 0.873 and an IC50 [6] of 19.6 µM.
In the case of Hs939-T (melanoma, adherent), the AUC [1] is reported as 0.873, the IC50 [1] is reported as > 32 µM and the AUC [2] is reported as 0.708. The IC50 [2] was 2.57 µM, the AUC [3] was 0.791 and the IC50 [3] was 4.98 µM. For the same cell line, the AUC [4] was 0.985, the IC50 [4] was > 30 µM and the AUC [5] was 0.765. The IC50 [5] was 2.05 µM, the AUC [6] was 0.983 and the IC50 [6] was > 20 µM.
For H513 (mesothelioma, semi-adherent), the AUC [1] was 0.984, the IC50 [1] was > 32 µM and the AUC [2] was 0.935. The IC50 [2] was > 10 µM, the AUC [3] was 0.972 and the IC50 [3] was > 10 µM. For the same cell line, the AUC [4] was 0.984, the IC50 [4] was > 30 µM and the AUC [5] was 0.983. The IC50 [5] was > 5.12 µM, the AUC [6] was 0.986 and the IC50 [6] was > 20 µM.
Work on H2369 (mesothelioma, adherent) yielded an AUC [1] of 0.864, an IC50 [1] of 29.6 µM and an AUC [2] of 0.891. The IC50 [2] was > 10 µM, the AUC [3] was 0.713 and the IC50 [3] was 2.56 µM. The AUC [4] was 0.982, the IC50 [4] was > 30 µM and the AUC [5] was 0.727. The IC50 [5] was 1.45 µM, the AUC [6] was 0.984 and the IC50 [6] was > 20 µM.
With Hs766T (pancreas, adherent) the AUC [1] was 0.939, the IC50 [1] was > 32 µM and the AUC [2] was 0.629. The IC50 [2] was 1.59 µM, the AUC [3] was 0.946 and the IC50 [3] was > 10 µM. For the same cell line, the AUC [4] was 0.98, the IC50 [4] was > 30 µM and the AUC [5] was 0.833. For the same cell line, the IC50 [5] was 4.94 µM, the AUC [6] was 0.981 and the IC50 [6] was > 20 µM.
With HuH-7 (liver, adherent) the AUC [1] was 0.983, the IC50 [1] was > 32 µM and the AUC [2] was 0.839. It also gave an IC50 [2] of 6.79 µM, an AUC [3] of 0.804 and an IC50 [3] of 4.97 µM. The AUC [4] was 0.986, the IC50 [4] was > 30 µM and the AUC [5] was 0.841. For the same cell line, the IC50 [5] was 3.55 µM, the AUC [6] was 0.96 and the IC50 [6] was > 20 µM.
For OVTOKO (ovary, adherent), the AUC [1] was 0.93, the IC50 [1] was > 32 µM and the AUC [2] was 0.815. It also gave an IC50 [2] of 7.45 µM, an AUC [3] of 0.773 and an IC50 [3] of 5 µM. The AUC [4] was 0.973, the IC50 [4] was > 30 µM and the AUC [5] was 0.655. The IC50 [5] was 0.97 µM, the AUC [6] was 0.943 and the IC50 [6] was > 20 µM.
T84 (large intestine, adherent) was tested, and the AUC [1] was 0.789, the IC50 [1] was 14.4 µM and the AUC [2] was 0.979. The IC50 [2] was > 10 µM, the AUC [3] was 0.968 and the IC50 [3] was > 10 µM. For the same cell line, the AUC [4] was 0.982, the IC50 [4] was > 30 µM and the AUC [5] was 0.753. For the same cell line, the IC50 [5] was 1.74 µM, the AUC [6] was 0.975 and the IC50 [6] was > 20 µM.
With TK (B-cell lymphoma, suspension) the AUC [1] was 0.829, the IC50 [1] was 17.6 µM and the AUC [2] was 0.985. The IC50 [2] was > 10 µM, the AUC [3] was 0.826 and the IC50 [3] was 5.36 µM. For the same cell line, the AUC [4] was 0.97, the IC50 [4] was > 30 µM and the AUC [5] was 0.599. For the same cell line, the IC50 [5] was 0.581 µM, the AUC [6] was 0.892 and the IC50 [6] was > 20 µM.
WM-115 (melanoma, adherent) was tested, and the AUC [1] was 0.982, the IC50 [1] was > 32 µM and the AUC [2] was 0.48. The IC50 [2] was 0.545 µM, the AUC [3] was 0.863 and the IC50 [3] was > 10 µM. The AUC [4] was 0.98, the IC50 [4] was > 30 µM and the AUC [5] was 0.645. The IC50 [5] was 0.884 µM, the AUC [6] was 0.983 and the IC50 [6] was > 20 µM.

The IC50 comes from the fitted curve, where viability falls to half of the control; fits outside the tested doses are given as limits. AUC sums up the same curve from the lowest dose to the 256-fold higher top dose; it is 1 without any effect and falls as sensitivity rises. For some assays here: The top dose, if marked as inferred, was derived from the fitted curves, not read from the paper.
